Over roughly 33,000 sequences, “E-score (-0.5 to 0.5)” has its median near -0.036; the highest 2% begin near 0.37. Some of the results follow.
Biological target: T1, Yer064c (UniProt P40041)
T1 sequence: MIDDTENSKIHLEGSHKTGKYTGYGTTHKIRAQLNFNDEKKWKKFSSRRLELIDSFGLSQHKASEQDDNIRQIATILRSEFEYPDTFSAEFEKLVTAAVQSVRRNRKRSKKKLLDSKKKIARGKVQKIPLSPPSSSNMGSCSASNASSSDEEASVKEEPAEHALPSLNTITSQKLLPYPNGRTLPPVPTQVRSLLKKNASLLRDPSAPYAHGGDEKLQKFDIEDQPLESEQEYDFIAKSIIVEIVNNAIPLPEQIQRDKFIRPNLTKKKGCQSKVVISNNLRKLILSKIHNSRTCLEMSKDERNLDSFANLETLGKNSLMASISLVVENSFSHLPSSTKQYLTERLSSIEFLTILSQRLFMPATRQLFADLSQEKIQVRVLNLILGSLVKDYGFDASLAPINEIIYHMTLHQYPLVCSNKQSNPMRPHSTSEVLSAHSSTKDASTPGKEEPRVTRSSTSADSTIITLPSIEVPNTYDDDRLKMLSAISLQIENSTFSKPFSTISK
Assay: PBM E-score (8-mer binding enrichment) (E-score (-0.5 to 0.5)); higher = stronger / more preferred TF binding; most listed sequences are background and not binding sites
Conditions: protein concentration: 200 nM; construct: GST-full length
Summary of the method: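 Yeast transcription factors, full-length or as DNA-binding domains, were expressed with a GST tag using PURExpress in vitro transcription/translation. At about 100-200 nM they were applied to universal all-10-mer Agilent arrays, double-stranded by primer extension on fresh or once-stripped slides. Fluorescent anti-GST detected bound protein, and masliner normalised the scans. E-scores for ungapped eight-base words, pooled with reverse complements, came from the Universal PBM Analysis Suite.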

| Sequence | PBM E-score |
| --- | --- |
| CGACACCG | -0.0725 |
| AGCTATGG | -0.0301 |
| AAATAACT | 0.124 |
| TACGTCCA | -0.306 |
| ATCTGTAC | 0.0286 |
| CATGAAAC | -0.0319 |
| ACGGCGAA | 0.0962 |
| GTCGACGA | 0.0812 |
| CCCTGGTA | -0.174 |
| CAACCTAA | -0.0182 |
| GAAAGGCA | -0.145 |
| GGAGTGGA | -0.284 |
| TAGGGCAA | -0.161 |
| CAGTCATA | 0.448 |
| GATCGACC | -0.226 |
| ACCCGACC | -0.0491 |
| CCGCTTGA | -0.00042 |
| GCGTGGCA | -0.187 |
| AACAGGCG | -0.131 |
| ATAATGTA | 0.0267 |
| CAGTGTTA | -0.0938 |
| CAGCTATG | 0.0402 |
| CATGGACA | -0.0537 |
| GTCGCGCA | 0.276 |
| CTACCCAA | -0.0352 |

| Sequence | PBM E-score |
| --- | --- |
| CATGTCCA | -0.0946 |
| CTACAAAG | 0.114 |
| GATCAGAA | 0.00565 |
| AGTGACAG | 0.00347 |
| ATACCCCG | -0.181 |
| CATTCAGC | -0.138 |
| AAGGGCAA | -0.178 |
| ACTCTACG | 0.0462 |
| GAAGGACA | -0.0606 |
| ACAGCGTA | -0.235 |
| CAATCAAC | 0.196 |
| ACTTGTCG | -0.188 |
| GGAAACCA | -0.064 |
| GGCCTGAA | -0.266 |
| AAATGTAA | 0.125 |
| AGTTTCTC | -0.105 |
| ACCATTTC | 0.00669 |
| CCCGTAAG | -0.139 |
| AACCCATC | 0.0717 |
| ATGGACAT | -0.0808 |
| CCTCTTTA | 0.0254 |
| GTAGTGTA | -0.0101 |
| CCTAGATC | -0.134 |
| GCTAAAGC | -0.0655 |
| ATTATTGG | 0.0609 |

| Sequence | PBM E-score |
| --- | --- |
| ACTCTGCA | 0.148 |
| CGTACAGC | -0.242 |
| GCGAGCCA | 0.161 |
| CAGATCGG | -0.21 |
| ATCACCTG | 0.167 |
| TAAGTGAA | 0.02 |
| GGCAAGAC | -0.163 |
| CGCCACCC | -0.128 |
| GACCCAAA | -0.0506 |
| GTTATTCA | 0.147 |
| ATGCACTA | 0.00971 |
| AGCGATAT | -0.122 |
| GCCCTCCC | -0.383 |
| CCAATTGA | 0.0265 |
| CAAAATAC | 0.0892 |
| CGGTATAA | -0.00073 |
| ATATCCTG | -0.181 |
| CGGTTAAC | 0.0189 |
| AGGCCTAC | -0.19 |
| AAGCCGTG | -0.0669 |
| CGGGTTTC | -0.167 |
| AACAGATT | 0.0753 |
| GACCTCAC | 0.0931 |
| CATCGTTA | -0.0177 |
| ATTCATTA | 0.21 |

| Sequence | PBM E-score |
| --- | --- |
| CATTGTGG | -0.0124 |
| TCCCAGCA | -0.0166 |
| GAGGGCCA | -0.0553 |
| AAAACGCC | -0.112 |
| CTGTTGCA | -0.0513 |
| AGACTGGC | -0.0548 |
| ACCTCTTC | -0.00529 |
| GCTATCTA | -0.0535 |
| AAAACACT | -0.0988 |
| CTTCACTC | 0.0415 |
| GGCTTACC | -0.179 |
| CGTTAAGC | 0.0294 |
| CCAAGTAC | -0.0857 |
| AGGCCCTC | -0.152 |
| AACGAGAT | -0.0275 |
| AGAACGTC | 0.0892 |
| GATTCTCA | 0.221 |
| AGGGACGC | -0.21 |
| ACCTGCGC | -0.343 |
| AGGCATCG | -0.125 |
| GAGTCTGC | 0.312 |
| AAGCTGTC | -0.12 |
| CCCTAACA | -0.0101 |
| GAACGTAA | -0.0281 |
| CAGCCTTC | -0.154 |

| Sequence | PBM E-score |
| --- | --- |
| GTACTGGA | 0.0546 |
| AGTCCCGC | 0.13 |
| ACGTTGGA | 0.00333 |
| CACCTATA | -0.0539 |
| AGACGTCG | -0.185 |
| GACGGTAA | -0.284 |
| ACAAAGGA | -0.046 |
| CAATTAGG | 0.00698 |
| CTCCAATA | 0.147 |
| ATCGGCCG | -0.0923 |
| GAAGCGAA | -0.0936 |
| AGTATCGG | -0.0639 |
| ACATTCGT | 0.00692 |
| ACAGACTG | 0.0873 |
| ATGATTAA | 0.472 |
| TCACACGA | 0.217 |
| GCCCTGAC | 0.0266 |
| TACACTGA | 0.215 |
| GTAAAGAC | 0.147 |
| CCCTCAAA | -0.0974 |
| ATTAATTC | 0.16 |
| AGGGATCA | 0.118 |
| AGCAACCC | -0.216 |
| CACTGAGC | 0.0406 |
| GTGAGAAC | -0.00457 |

| Sequence | PBM E-score |
| --- | --- |
| AACGGGGT | -0.0766 |
| AGAAAACA | 0.122 |
| ACAAATGC | -0.00989 |
| CGGAAACC | -0.0658 |
| AAAGGACA | 0.0814 |
| GTCATGGA | 0.292 |
| TAGCCGCA | -0.0712 |
| ATCAAATC | 0.21 |
| CAGGACAG | 0.0711 |
| GAGGCCAA | -0.113 |
| AATTGAGA | 0.223 |
| CCGATTAC | -0.132 |
| TACCACTA | -0.137 |
| AAGAAACA | -0.0402 |
| GGGCACCC | -0.269 |
| ACCAGTAT | -0.153 |
| AATATCGT | 0.0622 |
| GTAGACCA | -0.0117 |
| ATTGGATA | 0.107 |
| CGTTTCAA | -0.0471 |
| TGCTAACA | 0.00189 |
| ATCTTATG | 0.122 |
| ACCTGGCA | -0.145 |
| AAATTTCA | -0.0248 |
| ACTGGGTA | -0.04 |

| Sequence | PBM E-score |
| --- | --- |
| AGGGCAGG | -0.162 |
| CGGGAGGA | -0.0366 |
| GATGGCGA | -0.0113 |
| AGAATACA | 0.0199 |
| GAGACCAA | -0.0383 |
| CAATGACA | -0.0216 |
| CTACAGCA | -0.0176 |
| GATCTTCA | 0.021 |
| GCCTTTTA | -0.0751 |
| ACTAAAAA | 0.249 |
| AATTAAGA | 0.135 |
| CGTTCTAG | -0.0703 |
| CTAGACAG | -0.0516 |
| ACTCCCAA | 0.205 |
| CTCGAAAG | -0.00118 |
| ACTAGTAC | 0.196 |
| CGATCACA | 0.0941 |
| GAGACATA | 0.334 |
| GCATTCAA | -0.127 |
| CCCTAATA | -0.0692 |
| GCTGTTGA | 0.0881 |
| GTGTGCAA | 0.00092 |
| ACGATGAG | 0.219 |
| ATATTACG | 0.106 |
| CGGACGCA | -0.134 |

| Sequence | PBM E-score |
| --- | --- |
| CCACCCCA | -0.0763 |
| CATAAGTA | 0.142 |
| AATGGTAA | 0.0983 |
| CAAACTGA | 0.109 |
| CGACCGCG | -0.00452 |
| ACACACCT | 0.0951 |
| CGCCTGAG | -0.0417 |
| GAAATAAA | -0.0293 |
| GCACGGCC | -0.211 |
| ATGGGACA | -0.196 |
| ACTTACTC | 0.236 |
| CATTAGAA | 0.173 |
| ACATTAGC | -0.177 |
| ACTATGAT | 0.354 |
| CGCCCGTA | -0.257 |
| CGCCTCGC | -0.087 |
| AATGATCG | -0.166 |
| ATTTATAG | 0.0751 |
| ACCACGAG | -0.0782 |
| AGCTTGTC | -0.21 |
| AGACGGGG | -0.239 |
| TAATTATA | 0.172 |
| CTGAATAA | 0.165 |
| GGCGAAGA | -0.0567 |
| CCCCTACG | -0.0389 |

| Sequence | PBM E-score |
| --- | --- |
| CGCACTAC | -0.267 |
| CCAGCTTC | -0.0446 |
| ACCACTTG | -0.0296 |
| CAAGGATA | -0.104 |
| CACGGTAG | -0.0714 |
| GTCGTTAA | 0.151 |
| CATTATGA | 0.195 |
| CACTAGTG | 0.0783 |
| CCCAAAAC | 0.0481 |
| AGCCCCTC | -0.186 |
| GACGGATA | -0.179 |
| ATCGCTTA | -0.0645 |
| TGCACTAA | 0.106 |
| CGGGGGAG | -0.149 |
| AGCACATC | 0.0794 |
| AGATTCGG | -0.0237 |
| GAGTATGA | 0.27 |
| ACTATTGA | 0.291 |
| TCCGATAA | 0.192 |

Reference: the supplement of paper PMC3334620
